From the supplement of paper PMC3334620
In all, about 33,000 sequences were measured (“E-score (-0.5 to 0.5)”: median about -0.035, highest 2% from about 0.34 on). Some of the results follow.

biological target: T1, Mot3 (UniProt P54785); assay: PBM E-score (8-mer binding enrichment) (E-score (-0.5 to 0.5)); higher = stronger / more preferred TF binding; most listed sequences are background and not binding sites; details: protein concentration: 200 nM; construct: GST-full length
T1 sequence: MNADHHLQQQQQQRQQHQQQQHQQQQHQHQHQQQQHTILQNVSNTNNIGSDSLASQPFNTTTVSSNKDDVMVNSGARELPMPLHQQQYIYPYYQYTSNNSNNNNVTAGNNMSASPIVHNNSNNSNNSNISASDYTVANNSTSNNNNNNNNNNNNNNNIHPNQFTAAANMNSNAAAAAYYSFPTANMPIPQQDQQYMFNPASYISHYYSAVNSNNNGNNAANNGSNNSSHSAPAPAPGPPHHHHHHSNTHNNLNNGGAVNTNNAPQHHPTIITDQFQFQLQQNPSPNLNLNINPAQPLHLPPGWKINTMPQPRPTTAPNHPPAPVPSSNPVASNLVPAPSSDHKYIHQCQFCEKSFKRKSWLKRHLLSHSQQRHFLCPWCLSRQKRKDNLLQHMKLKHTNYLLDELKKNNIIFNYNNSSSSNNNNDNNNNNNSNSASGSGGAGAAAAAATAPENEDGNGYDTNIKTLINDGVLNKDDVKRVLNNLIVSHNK
Method in brief: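 Yeast transcription factors, full-length or as DNA-binding domains, were expressed with a GST tag using PURExpress in vitro transcription/translation. At about 100-200 nM they were applied to universal all-10-mer Agilent arrays, double-stranded by primer extension on fresh or once-stripped slides. Fluorescent anti-GST detected bound protein, and masliner normalised the scans. E-scores for ungapped eight-base words, pooled with reverse complements, came from the Universal PBM Analysis Suite.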

Sequence	PBM E-score
CGTGGGTA	-0.118
GAAAGGGC	-0.0854
AAGACAAG	0.117
GCAAGTAC	0.158
AATCGATC	-0.051
CCGGACTC	-0.0654
AGCTGATG	0.0117
CCGAAGCC	-0.279
CAGTGCGA	-0.0117
CAGGCTTC	0.0678
AATCCCCT	-0.0903
AATTAGTC	0.0895
GCCCAACA	0.146
CAGTACAG	-0.00717
ACAGTAGA	0.146
AGGGTACG	0.117
ATCCTAGA	-0.14
ACGTCCCC	-0.0914
AGTGTGAC	-0.0273
GGCGCGGA	-0.136
ATAGTCGG	-0.0977
CAGTAGGG	-0.00292
AATGGAAA	-0.154
CCGGGGAA	-0.122
CGCGAGCC	-0.129

Sequence	PBM E-score
CGGCTCAC	-0.251
GCCGGTCC	-0.432
GCAGAGAA	-0.0709
AAAGGATA	-0.0444
AGCGGTAC	-0.0746
ATTGAGAG	-0.162
ACTGGTCA	0.047
GATTATAA	-0.0495
GTCTCAAC	-0.0401
AGTCCGAT	-0.158
AATCACAA	0.0715
AAGGGCAT	-0.125
AGCGTCCC	-0.119
ATGCCAAT	-0.0774
GAATAAAC	0.0622
GTAGGGGA	-0.241
ATCACCTC	0.0432
GCGTGGTA	0.0907
ACGAGGAA	0.164
ACGCGACT	0.153
ACGCGACA	0.135
GCACTTTA	0.0941
ATCTCGGG	-0.184
GCAGACCA	-0.251
ACTCCTGC	-0.119

Sequence	PBM E-score
AAGCAGAG	0.0421
ATCGATAG	0.0807
GTTTACCA	0.149
CATCTTAG	0.0012
CTTGTTAC	0.158
ATGGTTAA	0.133
GCATCCAA	-0.305
ATGCGACC	-0.122
CGACTACC	-0.115
AAGGCCTT	-0.122
CAATACGG	-0.103
CCGTCGCA	-0.251
ATTGGAGG	-0.295
ACTAGCTC	0.051
GCGCGTCA	0.0156
CCGTCTCA	0.0425
AATTTATA	0.189
CATGAAGG	0.249
AGCAAGTG	-0.153
CATTCGGG	-0.086
GAGCGGAC	-0.329
TATATCGA	0.0267
ATTCACTA	0.124
GTGTACCA	0.221
CCAGGACC	-0.277

Sequence	PBM E-score
CTCGCGTA	0.174
GATGTGGC	-0.119
AGGTAGAC	-0.0113
ATAGGGTC	-0.0286
GACTTCTC	0.0145
CATTGTCA	0.0408
CGAAAGCA	0.0401
TGCACCCA	-0.116
CAACGTGG	0.0344
CCAACCCC	0.0307
ACCATTAC	0.168
CCCTGAGA	-0.294
ATCCATGC	0.0613
CCAACGTA	0.0662
GGACAACC	-0.108
CGAGGCCC	-0.183
CTAACGAC	-0.0131
AAGATCCG	-0.156
GGTTTAGA	-0.146
ACTGTGCC	0.265
ATCTGGGG	-0.276
AAAGCCCT	-0.155
GCGTCCCA	-0.196
TAGTATAA	0.117
CGTAAGAC	-0.101

Sequence	PBM E-score
AACCTCCG	-0.0545
TGAAACAA	0.123
TACGCAGA	0.236
CTAGATAA	-0.0624
ATCCTCTG	-0.271
AATTGCAT	0.064
CCGCGCTA	-0.0745
ATATCAAT	0.249
ACATCTGA	-0.191
GCGATACA	0.0872
ATGGCCCC	-0.199
CGAAGTAA	0.174
ATACGGCA	-0.00914
AACACTAG	0.0665
ACGTGTAT	0.356
AAATTTCC	0.238
AGTAGGAT	0.0448
AGCTGCAT	0.0096
CACCTACG	0.116
ATACTAGA	0.00036
TTCCAAAA	0.0722
AACGACTG	-0.211
CGCGGGTA	0.0205
ATGAGTTA	0.0514
AGGGATGA	-0.127

Sequence	PBM E-score
CAGAATTA	-0.0203
CAGTGGCA	-0.158
GTTCCATA	-0.157
CAGCAAGG	-0.017
GAGGAAGA	-0.167
ACAAATGT	0.255
TAGTTCGA	-0.094
CTATAAAC	0.0488
CTACGCCC	-0.131
AACGGGAT	-0.147
CGTTTTAC	0.213
AGTAGGGC	-0.043
CCACCAGG	-0.141
ACCCTTTG	-0.147
ATGGTAGG	0.0523
GCGCGAAC	-0.147
ATTGTGCC	0.152
AGTGGTAG	-0.184
CAAAGTCG	0.0321
CTTAGGGC	-0.083
ACCGAAAC	-0.151
TCCAACGA	-0.066
CAGTACGA	-0.11
CTAGATTA	-0.00804
AATAATAC	0.254

Sequence	PBM E-score
CCTGTCTC	-0.191
AAGTGCAC	-0.0911
AGATCATG	-0.0646
ACGCCGGG	-0.276
ACCCAGCT	-0.186
CAATGTAG	0.234
GACGTAGA	-0.0424
AGGTCACC	0.0194
AGCCAGAG	-0.242
CTCCGTAC	-0.195
CGATAAAG	0.0771
AGTCATGA	-0.159
ACACGCTA	0.356
GCGACTTA	-0.135
ACGTCGCC	-0.00307
ACCGGGGG	-0.265
GTCCTAAA	0.125
ATTAAATC	0.032
ATTGATTA	0.134
GTATAATA	0.223
GTGAGTAA	0.238
CGTGTTAC	0.308
AGGGCATA	-0.142
GTGTACAC	0.344
TACAGGCA	0.484

Sequence	PBM E-score
CATATCGC	-0.144
GGGGGAAC	-0.175
ACCTGCAC	0.0676
AAACCACG	-0.0678
CCCGAGAC	-0.284
GAAATTGC	0.147
GGTTACAC	0.225
ACACTCGC	-0.104
ACAGAGAC	-0.0733
CGCTAAGC	-0.0774
AGTCATTA	0.0125
AGGACTGA	-0.224
GCCAATCA	-0.23
GAGGCAGC	-0.0844
GAGTTGGA	-0.217
GACATCCA	-0.0449
GTAGGTCA	-0.0891
CGGTGGTA	0.0303
AATGCGGC	-0.00737
CGTGATAC	-0.0673
GGATCTCA	-0.274
GTATGGGA	-0.0874
ATTTGACG	0.0744
GAACCCAA	-0.14
ATCAGATG	-0.0793

Sequence	PBM E-score
GCAACTCC	-0.052
CCTCCCTC	-0.107
TAAATGAA	0.0305
GCTCTGAC	-0.179
CCGGAACA	-0.0722
ACCACATG	0.0906
GGCCCAAC	-0.144
CTGCCAAC	-0.0159
ACTTAGGC	0.278
ACCCCGTC	-0.286
AACCATGC	-0.0839
AGTTAAAC	0.171
ACGGCCAG	-0.256
AAAGTCAA	-0.0164
CGGCCCCG	-0.384
AGGGTTAC	-0.0583
AAATCAAT	0.245
AACAAGAT	0.17
CAACCGCG	0.0944
